{"source": "PubChem BioAssay AID1460", "about": "(National Center for Advancing Translational Sciences (NCATS), 2008)", "note": "In all, about 270,000 compounds went through this assay and about 5,800 (2.1%) were called active. This list was built around the results that the source calls inconclusive (neither active nor inactive); the mix of calls is not that of the screen. The call rests on the fitted dose curve; in most records, active means well fitted inhibition curve with a large enough effect; inconclusive means small, poorly fitted or top-dose-only effect; inactive means flat fitted curve, though single readings scatter. A potency beside an inconclusive call is a rough fit, not a confirmed value. Potency means the concentration at half of the fitted maximal effect; tags describe the fitted curve by direction and shape."}
{"target": "Microtubule-associated protein tau (Homo sapiens) (UniProt P10636)", "sequence (P10636 whole entry, looked up)": "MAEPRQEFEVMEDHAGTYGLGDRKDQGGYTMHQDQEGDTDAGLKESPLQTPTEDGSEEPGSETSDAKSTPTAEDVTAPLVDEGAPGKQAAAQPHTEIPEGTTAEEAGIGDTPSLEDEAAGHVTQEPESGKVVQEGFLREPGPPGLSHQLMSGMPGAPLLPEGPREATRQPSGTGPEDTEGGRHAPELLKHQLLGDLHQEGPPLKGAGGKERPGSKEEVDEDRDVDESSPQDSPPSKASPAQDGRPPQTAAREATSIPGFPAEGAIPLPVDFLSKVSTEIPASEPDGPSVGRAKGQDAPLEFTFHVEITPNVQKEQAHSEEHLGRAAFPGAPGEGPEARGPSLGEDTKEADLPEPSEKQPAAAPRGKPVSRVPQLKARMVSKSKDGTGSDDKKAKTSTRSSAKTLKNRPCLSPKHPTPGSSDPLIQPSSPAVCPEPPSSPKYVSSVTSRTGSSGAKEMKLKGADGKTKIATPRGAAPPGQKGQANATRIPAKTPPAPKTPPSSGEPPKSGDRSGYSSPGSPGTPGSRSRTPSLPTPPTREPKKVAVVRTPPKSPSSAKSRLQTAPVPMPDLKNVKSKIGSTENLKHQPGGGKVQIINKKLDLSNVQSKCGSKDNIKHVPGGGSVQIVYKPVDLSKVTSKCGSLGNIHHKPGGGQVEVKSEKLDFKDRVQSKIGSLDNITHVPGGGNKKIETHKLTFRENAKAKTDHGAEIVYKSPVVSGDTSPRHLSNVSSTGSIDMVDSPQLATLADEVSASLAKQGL", "assay": "qHTS for Inhibitors of Tau Fibril Formation, Thioflavin T Binding; further: nearly all actives have a fitted effect of over 55% in size", "conditions": "recombinant tau K18 P301L, heparin-induced fibrillization, ThT fluorescence; series mostly up to 57.4 µM", "method_in_brief": "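Using a mix of unlabeled (15 uM) and Alexa 594-labeled (0.24 uM) tau K18 P301L, heparin-triggered fibrillization over 6 hr at 37 C was scored by ThT fluorescence.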"}
{"smiles": "CSC(=NS(=O)(=O)c1ccccc1)SC", "Potency": "inconclusive: 14.1 µM [inhibitor, partial curve]"}
{"smiles": "Cc1ccc2[nH]c(C)cc(=S)c2c1", "Potency": "inconclusive: 28.2 µM [inhibitor, partial curve]"}
{"smiles": "CC1CN(C(=O)N2CCC(C(=O)N3CCN(c4ccccc4)CC3)CC2)c2cc(Cl)ccc2O1", "note": "(stereo not given)", "Potency": "inconclusive: 22.4 µM [inhibitor, partial curve]"}
{"smiles": "Cc1ccc(-n2c(C)cc(/C=c3/sc4nc5ccccc5n4c3=O)c2C)cc1", "Potency": "inconclusive: 12.6 µM [inhibitor, partial curve]"}
{"smiles": "CCN(CC)S(=O)(=O)c1cc([N+](=O)[O-])ccc1NNC(=O)Nc1ccccc1OC", "Potency": "inconclusive: 25.1 µM [inhibitor, partial curve]"}
{"smiles": "CC(C)c1nc2sc3c(=O)[nH]c(=S)[nH]c3c2c2c1CCC2", "Potency": "inconclusive: 17.8 µM [inhibitor, partial curve]"}
{"smiles": "Cc1ccc(-c2nc3ncccn3c2Nc2ccc3c(c2)OCCO3)o1", "Potency": "inconclusive: 14.1 µM [inhibitor, partial curve]"}
{"smiles": "O=C(Nc1ccc(Br)cc1F)C1CCN(c2nc3ccccc3[nH]2)CC1", "Potency": "inconclusive: 11.2 µM [inhibitor, partial curve]"}
{"smiles": "CCOC(=O)c1ccc(N/C=C2\\CCCCC2=O)cc1", "Potency": "inconclusive: 14.1 µM [inhibitor, partial curve]"}
{"smiles": "COc1cc2c(cc1O)C(Cc1ccc(O)cc1)[N+](C)(C)CC2", "note": "(stereo not given)", "Potency": "inactive"}
{"smiles": "O=C(Cn1cnc2c(nnn2-c2cccc(Cl)c2)c1=O)N1CCOCC1", "Potency": "inconclusive: 7.94 µM [activator, single point]"}
{"smiles": "O=C(Nc1ccccc1)Nc1ccc2snnc2c1", "Potency": "inconclusive: 25.1 µM [activator, partial curve]"}
{"smiles": "O=C(CNc1n[nH]c(=O)[nH]c1=O)N/N=C/C=C/c1ccccc1", "Potency": "inconclusive: 44.7 µM [inhibitor, single point]"}
{"smiles": "C=CCSc1nc(=O)n2ccc(C)cc2n1", "Potency": "inconclusive: 17.8 µM [inhibitor, partial curve, poor fit]"}
{"smiles": "CC[N+]1=CN(c2ccccc2)C(C)=CC1(C)C", "Potency": "inactive"}
{"smiles": "O=C(CSC1=NC(=O)C(c2ccccc2)C(=O)N1)Nc1ccccc1[N+](=O)[O-]", "note": "(stereo not given)", "Potency": "inconclusive: 12.6 µM [inhibitor, partial curve, poor fit]"}
{"smiles": "Clc1ccc2c(c1)-c1c(cnc3cc(-c4ccccc4)nn13)CO2", "Potency": "inactive"}
{"smiles": "COc1ccc(-n2ncc3c2ncn2nc(COc4ccc(Cl)cc4)nc32)cc1", "Potency": "inconclusive: 0.501 µM [inhibitor, full curve]"}
{"smiles": "O=C1N=c2ccccc2=C1c1sc(NS(=O)(=O)Cc2ccccc2)nc1O", "Potency": "active: 7.94 µM"}
{"smiles": "CCNC(=O)COC(=O)C1CCC(=O)N(c2ccc(OC)cc2)C1c1ccc(OC)cc1", "note": "(stereo not given)", "Potency": "inactive"}
{"smiles": "COc1ccc(C(=O)c2sc3nc(C)cc(-c4cccs4)c3c2N)cc1OC", "Potency": "inconclusive: 15.8 µM [inhibitor, single point]"}
{"smiles": "Cn1cnc2cc(OC(=O)c3ccccc3)ccc21", "Potency": "inactive"}
{"smiles": "COC(=O)c1ccc(N2CCC(c3cc(-c4ccc(OC)cc4)n[nH]3)CC2)c([N+](=O)[O-])c1", "Potency": "active: 3.55 µM"}
{"smiles": "Cc1ccc2oc3c(c(=O)c2c1)C(c1ccccc1F)N(CCCN(C)C)C3=O", "note": "(stereo not given)", "Potency": "inactive"}
{"smiles": "COc1ccc(-n2nnc3c(SCC(=O)NCC4CCCO4)ncnc32)cc1", "note": "(stereo not given)", "Potency": "inconclusive: 3.16 µM [inhibitor, full curve]"}
{"smiles": "CCc1ccc2[nH]c(=O)c(CN(Cc3ccccc3)Cc3nnnn3Cc3ccco3)cc2c1", "Potency": "inactive"}
{"smiles": "Cc1ccc(S(=O)(=O)Nc2cc(C(F)(F)F)ccc2N2CCOCC2)cc1", "Potency": "inactive"}
{"smiles": "Cc1ccc(C)c(N2CCN(C(=O)CCS(=O)(=O)c3cc4c(cc3Cl)NC(=O)CO4)CC2)c1", "Potency": "inactive"}
{"smiles": "Cc1ccc(NC(=O)CSc2nnc(CCNC(=O)OC(C)(C)C)o2)c(C)c1", "Potency": "inactive"}
{"smiles": "O=C1c2cccnc2C(=O)N1CNc1ccc(Cl)cc1", "Potency": "inactive"}
{"smiles": "CCCN=C(N)NCCC[C@H](N)C(=O)O", "Potency": "inactive"}
{"smiles": "CCn1c(N2CCN(C(=S)NCCc3ccccc3)CC2)nc2ccccc21", "Potency": "inconclusive: 17.8 µM [inhibitor, single point]"}
{"smiles": "CCOC(=O)C1=C(CN2CCc3ccccc32)NC(=O)NC1c1cccc([N+](=O)[O-])c1", "note": "(stereo not given)", "Potency": "inconclusive: 17.8 µM [inhibitor, partial curve]"}
{"smiles": "Cc1cc(C(=O)OCC(=O)NC(=O)c2cccn2C)c2ccccc2n1", "Potency": "inactive"}
{"smiles": "O=C1/C(=C/c2ccncc2)SC(=S)N1N1CCOCC1", "Potency": "inconclusive: 25.1 µM [inhibitor, single point]"}
{"smiles": "COC(=O)C1=C(O)/C(=C\\c2ccc(CNC(=O)C(=O)Nc3ccc(C)cc3)o2)N=C1C", "Potency": "inconclusive: 7.08 µM [inhibitor, partial curve]"}
{"smiles": "CCN(CC)C(=O)c1sc2c(c1C)c(=O)n(-c1ccc(Cl)c(Cl)c1)c(=O)n2Cc1cc(=O)n2ccccc2n1", "Potency": "inactive"}
{"smiles": "CCOC(=O)c1ccc2[nH]c3c(c2c1)CCCCC3=O", "Potency": "inconclusive: 12.6 µM [inhibitor, partial curve, poor fit]"}
{"smiles": "Cc1oc2c(cc(NS(=O)(=O)c3ccc(C(C)C)cc3)c3ccccc32)c1C(=O)O", "Potency": "inconclusive: 31.6 µM [inhibitor, single point]"}
{"smiles": "CC1CCc2c(sc(NC(=O)c3cc(-c4cccc(Cl)c4)on3)c2C(N)=O)C1", "note": "(stereo not given)", "Potency": "inconclusive: 0.631 µM [inhibitor, full curve, poor fit]"}
{"smiles": "COc1cccc(CNC(=O)C(C)n2ncn3cccc3c2=O)c1OC", "note": "(stereo not given)", "Potency": "inconclusive: 39.8 µM [inhibitor, single point]"}
{"smiles": "CN1CCc2nc(SCC(=O)Nc3ccc(F)cc3)c(C#N)cc2C1", "Potency": "active: 14.1 µM"}
{"smiles": "CCOC(=O)c1sc(=S)n(Cc2ccccc2)c1N", "Potency": "inactive"}
{"smiles": "Cc1cccc(OCc2nnc(SCC(=O)Nc3ncc(C)s3)o2)c1", "Potency": "inconclusive: 17.8 µM [inhibitor, partial curve]"}
{"smiles": "O=C(Nc1ccc2c(c1)OCO2)c1ccc(Br)s1", "Potency": "inconclusive: 17.8 µM [inhibitor, partial curve, poor fit]"}
